Data taken from article PMC12820563, “FoxP3 forms a head-to-head dimer in vivo and stabilizes its multimerization on adjacent microsatellites”.
The list shows a part of the results.

Biological target: T1, MBP-FoxP1dN (Mus musculus, UniProt P58462 326-579)
T1 sequence: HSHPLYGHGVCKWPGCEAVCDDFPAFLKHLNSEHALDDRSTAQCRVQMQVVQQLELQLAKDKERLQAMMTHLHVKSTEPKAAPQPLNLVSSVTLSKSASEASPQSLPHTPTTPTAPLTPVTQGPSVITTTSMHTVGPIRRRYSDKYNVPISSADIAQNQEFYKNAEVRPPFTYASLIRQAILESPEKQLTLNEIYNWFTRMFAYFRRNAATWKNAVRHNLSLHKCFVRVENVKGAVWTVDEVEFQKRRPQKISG
Assay: PD-seq (MBP pull-down with sequencing); 20 mM Tris-HCl pH 7.5, 100 mM NaCl, 1.5 mM MgCl2, 0.4 uM protein, 0.1 uM dsDNA library, 30 min, room temperature, amylose pull-down; high values mean tight binding
Conditions: protein: recombinant; tags: His6-MBP; chain copies: 2; dsDNA, one strand shown
Outline: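 Protein and DNA were mixed at 0.4 µM and 0.1 µM and held for 30 min at room temperature in Tris pH 7.5 buffer with NaCl and MgCl2; the protein was a His6-MBP-tagged, N-terminally truncated mouse FoxP3 or FoxP1 fragment from E. coli, and the DNA a Klenow-filled double-stranded degenerate library. Amylose resin captured the complexes, which were washed three times. Binding is read as reads-per-million enrichment of pull-down versus input after Illumina sequencing, with replicates pooled.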

Row | Sequence | binding signal
1 | GATGATTGTTCTCCCAGCTGATGAATTCCCCTGTTCGAGTAAACAAATTTTCCTAATCTTTCTGTTCAAGCGCCATCTAC | 0.717 RPM ratio (pull-down/input)
2 | GATGATTGTTCTCCCAGCTGATGAATTTGGGTAGTCGAGTAAACAAATTTTCCTAATCTTTCTGTTCAAGCGCCATCTAC | 0.934 RPM ratio (pull-down/input)
3 | GATGATTGTTCTCCCAGCTGATGAATTGTTCGTCTCGAGTAAACAAATTTTCCTAATCTTTCTGTTCAAGCGCCATCTAC | 1.01 RPM ratio (pull-down/input)
4 | GATGATTGTTCTCCCAGCTGATGAATTGAACAGCTCGAGTAAACAAATTTTCCTAATCTTTCTGTTCAAGCGCCATCTAC | 0.782 RPM ratio (pull-down/input)
5 | GATGATTGTTCTCCCAGCTGATGAATTCCTGACGTCGAGTAAACAAATTTTCCTAATCTTTCTGTTCAAGCGCCATCTAC | 0.839 RPM ratio (pull-down/input)
6 | GATGATTGTTCTCCCAGCTGATGAATTATTGAGGTCGAGTAAACAAATTTTCCTAATCTTTCTGTTCAAGCGCCATCTAC | 0.946 RPM ratio (pull-down/input)
7 | GATGATTGTTCTCCCAGCTGATGAATTGCGCCGATCGAGTAAACAAATTTTCCTAATCTTTCTGTTCAAGCGCCATCTAC | 1.03 RPM ratio (pull-down/input)
8 | GATGATTGTTCTCCCAGCTGATGAATTGTCGCCTTCGAGTAAACAAATTTTCCTAATCTTTCTGTTCAAGCGCCATCTAC | 0.995 RPM ratio (pull-down/input)
9 | GATGATTGTTCTCCCAGCTGATGAATTATTCGACTCGAGTAAACAAATTTTCCTAATCTTTCTGTTCAAGCGCCATCTAC | 1.04 RPM ratio (pull-down/input)
10 | GATGATTGTTCTCCCAGCTGATGAATTCAAGCGTTCGAGTAAACAAATTTTCCTAATCTTTCTGTTCAAGCGCCATCTAC | 0.967 RPM ratio (pull-down/input)
11 | GATGATTGTTCTCCCAGCTGATGAATTTGAAACCTCGAGTAAACAAATTTTCCTAATCTTTCTGTTCAAGCGCCATCTAC | 0.838 RPM ratio (pull-down/input)
12 | GATGATTGTTCTCCCAGCTGATGAATTTAATATATCGAGTAAACAAATTTTCCTAATCTTTCTGTTCAAGCGCCATCTAC | 0.958 RPM ratio (pull-down/input)
13 | GATGATTGTTCTCCCAGCTGATGAATTCAGCCATTCGAGTAAACAAATTTTCCTAATCTTTCTGTTCAAGCGCCATCTAC | 0.828 RPM ratio (pull-down/input)
14 | GATGATTGTTCTCCCAGCTGATGAATTCAGTAGTTCGAGTAAACAAATTTTCCTAATCTTTCTGTTCAAGCGCCATCTAC | 0.824 RPM ratio (pull-down/input)
15 | GATGATTGTTCTCCCAGCTGATGAATTGTACATTTCGAGTAAACAAATTTTCCTAATCTTTCTGTTCAAGCGCCATCTAC | 1.05 RPM ratio (pull-down/input)
16 | GATGATTGTTCTCCCAGCTGATGAATTGCGAAGCTCGAGTAAACAAATTTTCCTAATCTTTCTGTTCAAGCGCCATCTAC | 1.01 RPM ratio (pull-down/input)

Row | Sequence | binding signal
17 | GATGATTGTTCTCCCAGCTGATGAATTGTCAGTATCGAGTAAACAAATTTTCCTAATCTTTCTGTTCAAGCGCCATCTAC | 1.01 RPM ratio (pull-down/input)
18 | GATGATTGTTCTCCCAGCTGATGAATTTCTGATCTCGAGTAAACAAATTTTCCTAATCTTTCTGTTCAAGCGCCATCTAC | 0.84 RPM ratio (pull-down/input)
19 | GATGATTGTTCTCCCAGCTGATGAATTGTGAGAATCGAGTAAACAAATTTTCCTAATCTTTCTGTTCAAGCGCCATCTAC | 1.17 RPM ratio (pull-down/input)
20 | GATGATTGTTCTCCCAGCTGATGAATTCCAGGTTTCGAGTAAACAAATTTTCCTAATCTTTCTGTTCAAGCGCCATCTAC | 0.814 RPM ratio (pull-down/input)
21 | GATGATTGTTCTCCCAGCTGATGAATTGGGCACTTCGAGTAAACAAATTTTCCTAATCTTTCTGTTCAAGCGCCATCTAC | 0.918 RPM ratio (pull-down/input)
22 | GATGATTGTTCTCCCAGCTGATGAATTTCTCTTTTCGAGTAAACAAATTTTCCTAATCTTTCTGTTCAAGCGCCATCTAC | 1.13 RPM ratio (pull-down/input)
23 | GATGATTGTTCTCCCAGCTGATGAATTATACGTGTCGAGTAAACAAATTTTCCTAATCTTTCTGTTCAAGCGCCATCTAC | 1.05 RPM ratio (pull-down/input)
24 | GATGATTGTTCTCCCAGCTGATGAATTTGCGTAGTCGAGTAAACAAATTTTCCTAATCTTTCTGTTCAAGCGCCATCTAC | 1.01 RPM ratio (pull-down/input)
25 | GATGATTGTTCTCCCAGCTGATGAATTCGGAATATCGAGTAAACAAATTTTCCTAATCTTTCTGTTCAAGCGCCATCTAC | 0.92 RPM ratio (pull-down/input)
26 | GATGATTGTTCTCCCAGCTGATGAATTTAGCGATTCGAGTAAACAAATTTTCCTAATCTTTCTGTTCAAGCGCCATCTAC | 0.947 RPM ratio (pull-down/input)
27 | GATGATTGTTCTCCCAGCTGATGAATTAAAAGACTCGAGTAAACAAATTTTCCTAATCTTTCTGTTCAAGCGCCATCTAC | 0.784 RPM ratio (pull-down/input)
28 | GATGATTGTTCTCCCAGCTGATGAATTCCTCTAGTCGAGTAAACAAATTTTCCTAATCTTTCTGTTCAAGCGCCATCTAC | 0.791 RPM ratio (pull-down/input)
29 | GATGATTGTTCTCCCAGCTGATGAATTTGTTTCCTCGAGTAAACAAATTTTCCTAATCTTTCTGTTCAAGCGCCATCTAC | 1.49 RPM ratio (pull-down/input)
30 | GATGATTGTTCTCCCAGCTGATGAATTGACAAAGTCGAGTAAACAAATTTTCCTAATCTTTCTGTTCAAGCGCCATCTAC | 1.38 RPM ratio (pull-down/input)
31 | GATGATTGTTCTCCCAGCTGATGAATTGTAGGTCTCGAGTAAACAAATTTTCCTAATCTTTCTGTTCAAGCGCCATCTAC | 0.944 RPM ratio (pull-down/input)
